The source of these data is patent publication US20250297004A1, “NECTIN-4 BINDING AGENTS” (INNATE PHARMA, priority 2022, published 2025).

The test system of assay [1] is Nectin-4 internalization on MDA-MB-468 cell line. Put plainly: Fab-ZAP intracellular internalization assay (CTG readout) on MDA-MB-468. It is filed as cell-based, human. The procedure:
The humanized variants in Table 3 of Example 3 and in Table 6 of Example 5 were cloned, produced and purified, then tested for their ability to induce Nectin-4 internalization. Chimeric parental 5E7 antibody and isotype controls were used as negative control. This analysis was performed with the Fab-ZAP human Internalization kit assay with the Cell Titer Glo™ (CTG) assay used as readout. Experiments were performed on two cell lines expressing different levels of Nectin-4. MDA-MB-468 have a lower expression of Nectin-4 than SUM190.
Results of the internalization assays on SUM190 cell line are shown in Table 10 below that presents the internalization efficiency (normalized to the chimeric parental antibody internalization efficiency on MDA-M-468 cell line). The experiment was conducted in duplicate (two independent experiments).

Assay [2] addresses T1, human Nectin-4 (Homo sapiens, UniProt Q96NY8).
T1 sequence (Q96NY8 32-510): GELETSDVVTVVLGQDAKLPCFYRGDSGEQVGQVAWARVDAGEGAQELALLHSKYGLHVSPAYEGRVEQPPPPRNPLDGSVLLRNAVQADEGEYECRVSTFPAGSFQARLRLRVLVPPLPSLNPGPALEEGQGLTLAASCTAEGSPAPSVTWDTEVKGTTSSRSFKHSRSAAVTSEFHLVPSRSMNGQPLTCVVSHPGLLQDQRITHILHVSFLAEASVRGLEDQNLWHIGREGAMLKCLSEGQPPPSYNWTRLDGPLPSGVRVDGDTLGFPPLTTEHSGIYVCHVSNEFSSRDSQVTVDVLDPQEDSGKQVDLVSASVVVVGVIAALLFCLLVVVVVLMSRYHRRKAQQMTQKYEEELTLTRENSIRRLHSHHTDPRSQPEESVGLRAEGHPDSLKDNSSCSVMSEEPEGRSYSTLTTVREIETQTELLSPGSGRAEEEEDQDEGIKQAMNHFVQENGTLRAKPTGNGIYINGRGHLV
Kind of assay: Binding to human Nectin-4 by SPR. Particulars: second set (Table 7). As to the method: The antibodies in Table 3 of Example 3 were cloned as human IgG1 isotype antibodies, produced and purified, then tested for binding to human Nectin-4. Affinity of the 16 humanized variants, as well as their association and dissociation constants were assessed by SPR analysis. Table 4 summarizes all the calculated constants (Affinity constant KD (nM), association constant ka (1/Ms) and dissociation constant kd (1/s)).
The antibodies in Table 6 of Example 5 were cloned as human IgG1 isotype antibodies, produced and purified, then tested for binding to human Nectin-4. Affinity of the 16 humanized variants, as well as their association and dissociation constants were assessed by SPR analysis. Table 7 summarizes all the calculated constants (Affinity constant KD (nM), association constant ka (1/Ms) and dissociation constant kd (1/s)).
For orientation: SPR reads the build-up and loss of mass on a sensor chip optically.

B1: H5L3: humanized 5E7 variant: VH H5 SEQ ID NO: 47, VL L3 SEQ ID NO: 65; full chains SEQ ID NO: 77, 78 (antibody)
heavy: QVQLVQSGAEVKKPGASVKVSCKASGYIFTSYWMHWVKQRPGQGLEWMGEIDPSDSYTNYNQKFKGRVTMTLDKSTSTTYMELSSLRSEDTAVYYCARGYGNYGDYWGQGTLVTVSSASTKGPSVFPLAPSSKSTSGGTAALGCLVKDYFPEPVTVSWNSGALTSGVHTFPAVLQSSGLYSLSSVVTVPSSSLGTQTYICNVNHKPSNTKVDKRV[human IgG1 Fc not printed]
light: DVVMTQSALSNPVTPGEPASISCRSSKSLLHSNGITYLYWYLQKPGQSPQLLIYQMSNLASGVPDRFSSSGSGTDFTLKISRVEAEDVGVYYCAQNLELPWTFGGGTKVEIKRTVAAPSVFIFPPSDEQLKSGTASVVCLLNNFYPREAKVQWKVDNALQSGNSQESVTEQDSKDSTYSLSSTLTLSKADYEKHKVYACEVTHQGLSSPVTKSFNRGEC
A word on the Kd: it is a measure of binding affinity in units of concentration. Higher therefore signals a looser complex. Turning to B1, in assay [1], the “efficacy of the parental chimeric 5E7 antibody (internalization)” value is “over 75%”. For the same molecule, in assay [2] (SPR association constant), the “ka” value was determined as 250000 ± 10000 M⁻¹ s⁻¹. Moreover, the “kd” value in assay [2] (SPR dissociation constant) was determined as 0.0053 ± 0 s⁻¹. In addition, in assay [2] (SPR, human IgG1 isotype antibodies), the Kd was determined as 21.5 ± 0.4 nM.
